# From the supplement of paper PMC8728848
# The other results are listed elsewhere or left out.
# Experiments:
# Assay in all cases: glycan array binding signal (z-score within array); higher = stronger binding
# Conditions in all cases: glycan notation: IUPAC condensed, linker removed
# [1] = biological target: Gal(b1-3)[Fuc(a1-4)]GlcNAc(b1-3)Gal(b1-4)[Fuc(a1-3)]GlcNAc
# Procedure, shortened: (§1)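 Columns mapping to the same glycan were averaged after glycan names were converted to IUPAC-condensed notation. The data come from 3228 arrays in the Consortium for Functional Glycomics database, limited to those with an available protein sequence. Binding is reported as a within-array Z-score averaged across arrays of one protein sequence and across linkers.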
# [2] = biological target: Gal(b1-3)[GlcNAc(b1-6)]GalNAc
# Procedure, shortened: as §1
# [3] = biological target: Gal(b1-3)[Neu5Ac(a2-6)]GalNAc
# Procedure, shortened: as §1
# [4] = biological target: Gal(b1-3)[Neu5Ac(a2-6)]GlcNAc(b1-6)Gal(b1-4)Glc
# Procedure, shortened: as §1
# [5] = biological target: Gal(b1-3)[Neu5Ac(b2-6)]GalNAc
# Procedure, shortened: as §1
# [6] = biological target: Gal(b1-4)GalNAc(a1-3)[Fuc(a1-2)]Gal(b1-4)GlcNAc
# Procedure, shortened: as §1
# [7] = biological target: Gal(b1-4)GalNAc(b1-3)[Fuc(a1-2)]Gal(b1-4)GlcNAc
# Procedure, shortened: as §1
# [8] = biological target: Gal(b1-4)Glc
# Procedure, shortened: as §1
# [9] = biological target: Gal(b1-4)Glc6S
# Procedure, shortened: as §1
# [10] = biological target: Gal(b1-4)GlcNAc
# Procedure, shortened: as §1
# [11] = biological target: Gal(b1-4)GlcNAc(b1-2)Man(a1-3)[Gal(b1-4)GlcNAc(b1-2)Man(a1-6)]Man(b1-4)GlcNAc(b1-4)GlcNAc
# Procedure, shortened: as §1
# [12] = biological target: Gal(b1-4)GlcNAc(b1-3)Gal(b1-4)Glc
# Procedure, shortened: as §1
# [13] = biological target: Gal(b1-4)GlcNAc(b1-3)Gal(b1-4)GlcNAc
# Procedure, shortened: as §1
# [14] = biological target: Gal(b1-4)GlcNAc(b1-3)Gal(b1-4)GlcNAc(b1-3)Gal(b1-4)GlcNAc
# Procedure, shortened: as §1
# [15] = biological target: Gal(b1-4)GlcNAc(b1-3)Gal(b1-4)[Fuc(a1-3)]GlcNAc(b1-3)Gal(b1-4)[Fuc(a1-3)]GlcNAc
# Procedure, shortened: as §1
# [16] = biological target: Gal(b1-4)GlcNAc(b1-3)GalNAc
# Procedure, shortened: as §1
# [17] = biological target: Gal(b1-4)GlcNAc(b1-3)[Gal(b1-4)GlcNAc(b1-6)]GalNAc
# Procedure, shortened: as §1
# [18] = biological target: Gal(b1-4)GlcNAc(b1-6)Gal(b1-4)GlcNAc(b1-6)GalNAc
# Procedure, shortened: as §1
# [19] = biological target: Gal(b1-4)GlcNAc(b1-6)GalNAc
# Procedure, shortened: as §1
# [20] = biological target: Gal(b1-4)GlcNAc(b1-6)[Gal(b1-3)]GalNAc
# Procedure, shortened: as §1
# [21] = biological target: Gal3S(b1-3)GalNAc
# Procedure, shortened: as §1
# [22] = biological target: Gal3S(b1-3)GlcNAc
# Procedure, shortened: as §1
# [23] = biological target: Gal3S(b1-3)[Fuc(a1-4)]GlcNAc
# Procedure, shortened: as §1
# [24] = biological target: Gal3S(b1-4)Glc
# Procedure, shortened: as §1
# [25] = biological target: Gal3S(b1-4)Glc6S
# Procedure, shortened: as §1
# [26] = biological target: Gal3S(b1-4)GlcNAc
# Procedure, shortened: as §1
# [27] = biological target: Gal3S(b1-4)GlcNAc6S
# Procedure, shortened: as §1
# [28] = biological target: Gal3S6S(b1-4)GlcNAc
# Procedure, shortened: as §1
# [29] = biological target: Gal3S6S(b1-4)GlcNAc6S
# Procedure, shortened: as §1
# [30] = biological target: Gal4S(b1-4)GlcNAc
# Procedure, shortened: as §1
# [31] = biological target: Gal4S6S(b1-4)GlcNAc
# Procedure, shortened: as §1
# [32] = biological target: Gal6S(b1-4)Glc
# Procedure, shortened: as §1
# [33] = biological target: Gal6S(b1-4)Glc6S
# Procedure, shortened: as §1
# [34] = biological target: Gal6S(b1-4)GlcNAc
# Procedure, shortened: as §1
# [35] = biological target: GalNAc(a1-3)Gal
# Procedure, shortened: as §1
# [36] = biological target: GalNAc(a1-3)GalNAc
# Procedure, shortened: as §1
# [37] = biological target: GalNAc(b1-3)Gal(a1-4)Gal(b1-4)GlcNAc
# Procedure, shortened: as §1
# [38] = biological target: GalNAc(b1-3)GalNAc
# Procedure, shortened: as §1
# [39] = biological target: GalNAc(b1-4)GlcNAc
# Procedure, shortened: as §1
# [40] = biological target: Glc(a1-4)Glc
# Procedure, shortened: as §1
# [41] = biological target: Glc(a1-6)Glc(a1-6)Glc
# Procedure, shortened: as §1
# [42] = biological target: Glc(b1-4)Glc
# Procedure, shortened: as §1
# [43] = biological target: Glc(b1-6)Glc
# Procedure, shortened: as §1
# [44] = biological target: GlcA(b1-3)Gal
# Procedure, shortened: as §1
# [45] = biological target: GlcA(b1-6)Gal
# Procedure, shortened: as §1
# [46] = biological target: GlcNAc(a1-3)Gal(b1-4)GlcNAc
# Procedure, shortened: as §1
# [47] = biological target: GlcNAc(a1-6)Gal(b1-4)GlcNAc
# Procedure, shortened: as §1
# [48] = biological target: GlcNAc(b1-2)Gal(b1-3)GalNAc
# Procedure, shortened: as §1
# [49] = biological target: GlcNAc(b1-2)Man(a1-3)[GlcNAc(b1-2)Man(a1-6)]Man(b1-4)GlcNAc(b1-4)GlcNAc
# Procedure, shortened: as §1
# [50] = biological target: GlcNAc(b1-3)Gal
# Procedure, shortened: as §1
# [51] = biological target: GlcNAc(b1-3)Gal(b1-3)GalNAc
# Procedure, shortened: as §1
# [52] = biological target: GlcNAc(b1-3)Gal(b1-4)Glc
# Procedure, shortened: as §1
# [53] = biological target: GlcNAc(b1-3)Gal(b1-4)GlcNAc
# Procedure, shortened: as §1
# [54] = biological target: GlcNAc(b1-3)Gal(b1-4)GlcNAc(b1-3)Gal(b1-4)GlcNAc
# Procedure, shortened: as §1
# [55] = biological target: GlcNAc(b1-3)GalNAc
# Procedure, shortened: as §1
# [56] = biological target: GlcNAc(b1-3)[GlcNAc(b1-6)]Gal(b1-4)GlcNAc
# Procedure, shortened: as §1
# [57] = biological target: GlcNAc(b1-3)[GlcNAc(b1-6)]GalNAc
# Procedure, shortened: as §1
# [58] = biological target: GlcNAc(b1-3)[GlcNAc(b1-6)]GlcNAc(b1-4)GlcNAc
# Procedure, shortened: as §1
# [59] = biological target: GlcNAc(b1-4)Gal(b1-4)GlcNAc
# Procedure, shortened: as §1
# [60] = biological target: GlcNAc(b1-4)GlcNAc(b1-4)GlcNAc
# Procedure, shortened: as §1
# [61] = biological target: GlcNAc(b1-4)GlcNAc(b1-4)GlcNAc(b1-4)GlcNAc(b1-4)GlcNAc
# Procedure, shortened: as §1
# [62] = biological target: GlcNAc(b1-4)GlcNAc(b1-4)GlcNAc(b1-4)GlcNAc(b1-4)GlcNAc(b1-4)GlcNAc
# Procedure, shortened: as §1
# [63] = biological target: GlcNAc(b1-4)[GlcNAc(b1-6)]GalNAc
# Procedure, shortened: as §1
# [64] = biological target: GlcNAc(b1-6)Gal(b1-4)GlcNAc
# Procedure, shortened: as §1
# [65] = biological target: GlcNAc(b1-6)GalNAc
# Procedure, shortened: as §1
# [66] = biological target: Kdn(a2-3)Gal(b1-3)GlcNAc
# Procedure, shortened: as §1
# [67] = biological target: Kdn(a2-3)Gal(b1-4)GlcNAc
# Procedure, shortened: as §1
binder,measurement,setting,value
"RSVL (Crotalus atrox), P21963 (protein) NNCPLDWLPMNGLCYKIFNQLKTWEDAEMFCRKYKPGCHLASFHRYGESLEIAEYISDYHKGQENVWIGLRDKKKDFSWEWTDRSCTDYLTWDKNQPDHYQNKEFCVELVSLTGYRLWNDQVCESKDAFLCQCKF",glycan array binding signal (z-score),[1],-0.366
same,glycan array binding signal (z-score),[2],-0.144
same,glycan array binding signal (z-score),[3],0.068
same,glycan array binding signal (z-score),[4],-0.362
same,glycan array binding signal (z-score),[5],0.952
same,glycan array binding signal (z-score),[6],-0.369
same,glycan array binding signal (z-score),[7],-0.328
same,glycan array binding signal (z-score),[8],0.698
same,glycan array binding signal (z-score),[9],0.604
same,glycan array binding signal (z-score),[10],0.686
same,glycan array binding signal (z-score),[11],1.49
same,glycan array binding signal (z-score),[12],0.298
same,glycan array binding signal (z-score),[13],0.363
same,glycan array binding signal (z-score),[14],-0.23
same,glycan array binding signal (z-score),[15],-0.068
same,glycan array binding signal (z-score),[16],-0.171
same,glycan array binding signal (z-score),[17],5.41
same,glycan array binding signal (z-score),[18],4.03
same,glycan array binding signal (z-score),[19],4
same,glycan array binding signal (z-score),[20],5.05
same,glycan array binding signal (z-score),[21],-0.365
same,glycan array binding signal (z-score),[22],-0.363
same,glycan array binding signal (z-score),[23],-0.368
same,glycan array binding signal (z-score),[24],-0.355
same,glycan array binding signal (z-score),[25],-0.362
same,glycan array binding signal (z-score),[26],-0.362
same,glycan array binding signal (z-score),[27],-0.363
same,glycan array binding signal (z-score),[28],-0.351
same,glycan array binding signal (z-score),[29],-0.362
same,glycan array binding signal (z-score),[30],-0.367
same,glycan array binding signal (z-score),[31],-0.364
same,glycan array binding signal (z-score),[32],-0.038
same,glycan array binding signal (z-score),[33],-0.347
same,glycan array binding signal (z-score),[34],-0.358
same,glycan array binding signal (z-score),[35],3.98
same,glycan array binding signal (z-score),[36],4.76
same,glycan array binding signal (z-score),[37],0.559
same,glycan array binding signal (z-score),[38],-0.058
same,glycan array binding signal (z-score),[39],0.124
same,glycan array binding signal (z-score),[40],-0.367
same,glycan array binding signal (z-score),[41],-0.366
same,glycan array binding signal (z-score),[42],-0.36
same,glycan array binding signal (z-score),[43],-0.364
same,glycan array binding signal (z-score),[44],-0.366
same,glycan array binding signal (z-score),[45],-0.294
same,glycan array binding signal (z-score),[46],-0.36
same,glycan array binding signal (z-score),[47],3.53
same,glycan array binding signal (z-score),[48],-0.364
same,glycan array binding signal (z-score),[49],-0.364
same,glycan array binding signal (z-score),[50],-0.366
same,glycan array binding signal (z-score),[51],-0.364
same,glycan array binding signal (z-score),[52],-0.367
same,glycan array binding signal (z-score),[53],-0.369
same,glycan array binding signal (z-score),[54],-0.107
same,glycan array binding signal (z-score),[55],-0.368
same,glycan array binding signal (z-score),[56],-0.369
same,glycan array binding signal (z-score),[57],-0.368
same,glycan array binding signal (z-score),[58],-0.361
same,glycan array binding signal (z-score),[59],-0.369
same,glycan array binding signal (z-score),[60],-0.369
same,glycan array binding signal (z-score),[61],-0.327
same,glycan array binding signal (z-score),[62],-0.369
same,glycan array binding signal (z-score),[63],-0.369
same,glycan array binding signal (z-score),[64],0.382
same,glycan array binding signal (z-score),[65],1.02
same,glycan array binding signal (z-score),[66],-0.345
same,glycan array binding signal (z-score),[67],-0.366
